{"source": "the supplement of paper PMC3334620", "note": "Over roughly 33,000 sequences, “E-score (-0.5 to 0.5)” has its median near -0.035; the highest 2% begin near 0.35. This is one part of the list."}
{"target": "T1, Pdr3 (UniProt P33200)", "T1 sequence": "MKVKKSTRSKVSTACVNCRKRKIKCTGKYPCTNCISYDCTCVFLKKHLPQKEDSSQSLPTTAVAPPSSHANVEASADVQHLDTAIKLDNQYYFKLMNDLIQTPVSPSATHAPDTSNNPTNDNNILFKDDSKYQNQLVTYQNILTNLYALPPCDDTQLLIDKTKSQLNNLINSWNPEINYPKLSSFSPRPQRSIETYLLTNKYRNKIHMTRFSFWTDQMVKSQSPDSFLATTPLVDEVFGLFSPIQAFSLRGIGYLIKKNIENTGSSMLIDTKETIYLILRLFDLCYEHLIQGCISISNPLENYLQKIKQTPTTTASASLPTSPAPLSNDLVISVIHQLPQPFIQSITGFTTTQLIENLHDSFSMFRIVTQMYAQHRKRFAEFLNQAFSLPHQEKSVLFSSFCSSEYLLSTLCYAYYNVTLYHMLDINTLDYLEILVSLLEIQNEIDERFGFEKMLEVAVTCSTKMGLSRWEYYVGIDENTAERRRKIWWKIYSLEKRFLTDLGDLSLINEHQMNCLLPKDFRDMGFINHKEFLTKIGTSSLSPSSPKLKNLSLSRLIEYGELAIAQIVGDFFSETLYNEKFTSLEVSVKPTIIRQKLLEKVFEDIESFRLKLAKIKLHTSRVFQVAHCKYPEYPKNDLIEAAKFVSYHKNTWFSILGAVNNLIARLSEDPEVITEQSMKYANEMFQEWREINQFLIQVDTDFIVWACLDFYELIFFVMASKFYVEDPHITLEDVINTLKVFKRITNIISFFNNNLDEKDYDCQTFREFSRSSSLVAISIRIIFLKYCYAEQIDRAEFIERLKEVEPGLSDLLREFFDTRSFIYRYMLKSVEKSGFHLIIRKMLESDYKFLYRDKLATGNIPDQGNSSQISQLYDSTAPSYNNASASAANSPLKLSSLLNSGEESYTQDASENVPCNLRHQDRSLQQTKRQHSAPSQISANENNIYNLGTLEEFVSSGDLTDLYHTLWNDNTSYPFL", "test": "PBM E-score (8-mer binding enrichment) (E-score (-0.5 to 0.5)); higher = stronger / more preferred TF binding; most listed sequences are background and not binding sites", "settings": "protein concentration: 200 nM; construct: GST-full length", "procedure,_shortened": "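E-scores (a modified Wilcoxon-Mann-Whitney statistic) were assigned by the Universal PBM Analysis Suite to every ungapped eight-base word pooled with its reverse complement. The input came from universal all-10-mer Agilent arrays made double-stranded by primer extension and probed with GST-tagged yeast transcription factors at about 100-200 nM. Fluorescent anti-GST detected bound protein, and masliner normalised the scans.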"}
{"sequence": "AGTCCACG", "PBM E-score": -0.0769}
{"sequence": "ATTACCGA", "PBM E-score": 0.0951}
{"sequence": "ATCGGTGA", "PBM E-score": 0.0153}
{"sequence": "AGATTATC", "PBM E-score": -0.0746}
{"sequence": "AATGCTCA", "PBM E-score": -0.0464}
{"sequence": "AGCGAAGG", "PBM E-score": -0.0572}
{"sequence": "CCGTTATC", "PBM E-score": 0.213}
{"sequence": "CTCCCTAA", "PBM E-score": -0.187}
{"sequence": "GACGGAGC", "PBM E-score": 0.213}
{"sequence": "ACAATCAA", "PBM E-score": 0.0382}
{"sequence": "CCCTAGCG", "PBM E-score": -0.297}
{"sequence": "AACGACAA", "PBM E-score": 0.0825}
{"sequence": "AAATGATG", "PBM E-score": 0.133}
{"sequence": "GATGAGCC", "PBM E-score": -0.0616}
{"sequence": "CACGGGTC", "PBM E-score": 0.25}
{"sequence": "CGCCCCTC", "PBM E-score": 0.0145}
{"sequence": "GGATTCCA", "PBM E-score": 0.191}
{"sequence": "GACGGTAC", "PBM E-score": 0.0391}
{"sequence": "ATCACATA", "PBM E-score": 0.00799}
{"sequence": "CACCATGA", "PBM E-score": -0.0152}
{"sequence": "CAGATCTA", "PBM E-score": -0.337}
{"sequence": "ATGCAACG", "PBM E-score": -0.012}
{"sequence": "AGGTATGA", "PBM E-score": -0.0996}
{"sequence": "ACAACGTC", "PBM E-score": -0.0147}
{"sequence": "GGCTTCCA", "PBM E-score": -0.084}
{"sequence": "ATGATAAC", "PBM E-score": -0.145}
{"sequence": "GCCCGGCA", "PBM E-score": 0.225}
{"sequence": "CTCAACGA", "PBM E-score": -0.1}
{"sequence": "ATGACGCA", "PBM E-score": -0.0533}
{"sequence": "ATGGGAGG", "PBM E-score": -0.0734}
{"sequence": "CGTGGCAC", "PBM E-score": -0.068}
{"sequence": "CAGAGTCC", "PBM E-score": 0.0248}
{"sequence": "CCCAGCTC", "PBM E-score": 0.0314}
{"sequence": "GAATCCTC", "PBM E-score": 0.0176}
{"sequence": "CCCTAGCC", "PBM E-score": -0.0872}
{"sequence": "CTTTAGGC", "PBM E-score": -0.296}
{"sequence": "ACGTACAA", "PBM E-score": -0.139}
{"sequence": "ATCGTCTC", "PBM E-score": -0.0382}
{"sequence": "ACTACTAC", "PBM E-score": -0.0193}
{"sequence": "TGCATGCA", "PBM E-score": -0.00836}
{"sequence": "AGCTCGTA", "PBM E-score": -0.232}
{"sequence": "GCTTTCCC", "PBM E-score": 0.124}
{"sequence": "CTTGTACC", "PBM E-score": -0.0695}
{"sequence": "CGGGTGTA", "PBM E-score": 0.217}
{"sequence": "TACAGCGA", "PBM E-score": -0.198}
{"sequence": "AAATGGCT", "PBM E-score": -0.126}
{"sequence": "ATTCAATG", "PBM E-score": -0.0444}
{"sequence": "AAGGTTAC", "PBM E-score": -0.175}
{"sequence": "CGTTCGAC", "PBM E-score": -0.241}
{"sequence": "ACCGACTC", "PBM E-score": -0.0651}
{"sequence": "AGAAATGA", "PBM E-score": -0.165}
{"sequence": "TACCAGAA", "PBM E-score": 0.0324}
{"sequence": "ATGACCCC", "PBM E-score": 0.0641}
{"sequence": "AAGGTCGG", "PBM E-score": 0.11}
{"sequence": "AATAAGTG", "PBM E-score": -0.221}
{"sequence": "AGCTTCTA", "PBM E-score": -0.137}
{"sequence": "ACACATCT", "PBM E-score": -0.0807}
{"sequence": "CCCACTAA", "PBM E-score": -0.0158}
{"sequence": "CTATTACC", "PBM E-score": 0.0609}
{"sequence": "ACGGGTAC", "PBM E-score": 0.0978}
{"sequence": "AAGTAGAG", "PBM E-score": -0.251}
{"sequence": "GGGCTGAC", "PBM E-score": 0.111}
{"sequence": "TAAAATGA", "PBM E-score": 0.12}
{"sequence": "CCAGTGGC", "PBM E-score": -0.0561}
{"sequence": "GGGGGGAC", "PBM E-score": -0.307}
{"sequence": "CCGCTGAG", "PBM E-score": 0.16}
{"sequence": "ACTTGGAC", "PBM E-score": -0.026}
{"sequence": "ACCTTCTC", "PBM E-score": 0.0469}
{"sequence": "ACCTGCCG", "PBM E-score": -0.0199}
{"sequence": "CAGTGATG", "PBM E-score": -0.265}
{"sequence": "AAAAAATC", "PBM E-score": 0.00966}
{"sequence": "AGAACACA", "PBM E-score": 0.00421}
{"sequence": "AGGTTAGC", "PBM E-score": -0.28}
{"sequence": "CTATGTGA", "PBM E-score": -0.173}
{"sequence": "CGAACATA", "PBM E-score": 0.0651}
{"sequence": "CAGTCAAG", "PBM E-score": -0.183}
{"sequence": "GGATCCCA", "PBM E-score": 0.202}
{"sequence": "GCACCTAC", "PBM E-score": -0.107}
{"sequence": "TAGACCAA", "PBM E-score": -0.077}
{"sequence": "AGACATAG", "PBM E-score": -0.0533}
{"sequence": "TCAATGAA", "PBM E-score": -0.0947}
{"sequence": "AGCGGCTA", "PBM E-score": 0.0415}
{"sequence": "ATTGCGCC", "PBM E-score": 0.0385}
{"sequence": "AGTTCGTG", "PBM E-score": 0.0727}
{"sequence": "CGTTGCTA", "PBM E-score": -0.167}
{"sequence": "CTTAACGA", "PBM E-score": -0.0976}
